# Experimental data: article PMC11459180, “Structural basis for adhesin secretion by the outer-membrane usher in type 1 pili” (Proceedings of the National Academy of Sciences of the …, 2024)
# T1: outer-membrane usher FimD (Escherichia coli, UniProt P30130 46-878)
# T1 sequence: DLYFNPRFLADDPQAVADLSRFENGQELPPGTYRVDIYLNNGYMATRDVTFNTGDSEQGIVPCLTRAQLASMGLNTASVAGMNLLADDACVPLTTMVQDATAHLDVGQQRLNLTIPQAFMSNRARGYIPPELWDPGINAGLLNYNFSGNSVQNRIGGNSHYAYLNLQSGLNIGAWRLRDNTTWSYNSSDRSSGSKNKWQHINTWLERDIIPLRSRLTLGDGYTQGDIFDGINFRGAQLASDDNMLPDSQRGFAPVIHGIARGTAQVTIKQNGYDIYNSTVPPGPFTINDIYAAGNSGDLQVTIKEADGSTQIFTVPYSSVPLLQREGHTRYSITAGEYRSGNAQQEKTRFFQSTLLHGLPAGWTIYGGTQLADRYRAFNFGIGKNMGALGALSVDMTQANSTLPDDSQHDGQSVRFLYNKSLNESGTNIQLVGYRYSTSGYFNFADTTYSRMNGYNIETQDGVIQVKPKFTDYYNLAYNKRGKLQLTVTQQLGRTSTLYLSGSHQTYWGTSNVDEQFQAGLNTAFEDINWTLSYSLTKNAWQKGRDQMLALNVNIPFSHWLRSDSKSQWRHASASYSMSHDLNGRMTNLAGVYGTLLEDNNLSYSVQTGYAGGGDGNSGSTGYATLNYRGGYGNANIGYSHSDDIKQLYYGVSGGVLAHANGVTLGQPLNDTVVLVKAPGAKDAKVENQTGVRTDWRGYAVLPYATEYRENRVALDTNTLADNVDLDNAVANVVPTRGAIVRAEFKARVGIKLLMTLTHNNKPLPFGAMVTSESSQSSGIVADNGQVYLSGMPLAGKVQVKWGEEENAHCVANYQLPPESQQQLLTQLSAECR
# Target: T1, outer-membrane usher FimD
# Experiment: cryo-EM structure
# Conditions: both partners purified
binder,measurement,value
"adhesin FimH (wild type) (natural protein, also called FimHWT; tip adhesin) not shown",binding result,binds
